Experimental data from PubChem BioAssay AID504333 (National Center for Advancing Translational Sciences (NCATS), 2011).
Screen size: about 360,000 compounds; about 16,000 (4.4%) were called active. Inconclusive means that the source gave no clear call. Such entries were picked first, then a sample of the others. The call rests on the fitted dose curve; in most records, active means well fitted inhibition curve with a large enough effect; inconclusive means small, poorly fitted or top-dose-only effect; inactive means no such curve, though single readings can be large or run the other way. Potencies of inconclusive entries are doubtful fits and often do not repeat.

target: Bromodomain adjacent to zinc finger domain protein 2B (Homo sapiens) (UniProt Q9UIF8); assay: qHTS Assay for Inhibitors of BAZ2B; details: AlphaScreen BAZ2B-H3K14Ac peptide displacement; activity change, negative = inhibition: at 114 µM (top of the series) unless noted; further: nearly all actives have a fitted effect of over 60% in size
Chain of UniProt Q9UIF8 (Q9UIF8 whole entry, looked up, the tested form may be a part): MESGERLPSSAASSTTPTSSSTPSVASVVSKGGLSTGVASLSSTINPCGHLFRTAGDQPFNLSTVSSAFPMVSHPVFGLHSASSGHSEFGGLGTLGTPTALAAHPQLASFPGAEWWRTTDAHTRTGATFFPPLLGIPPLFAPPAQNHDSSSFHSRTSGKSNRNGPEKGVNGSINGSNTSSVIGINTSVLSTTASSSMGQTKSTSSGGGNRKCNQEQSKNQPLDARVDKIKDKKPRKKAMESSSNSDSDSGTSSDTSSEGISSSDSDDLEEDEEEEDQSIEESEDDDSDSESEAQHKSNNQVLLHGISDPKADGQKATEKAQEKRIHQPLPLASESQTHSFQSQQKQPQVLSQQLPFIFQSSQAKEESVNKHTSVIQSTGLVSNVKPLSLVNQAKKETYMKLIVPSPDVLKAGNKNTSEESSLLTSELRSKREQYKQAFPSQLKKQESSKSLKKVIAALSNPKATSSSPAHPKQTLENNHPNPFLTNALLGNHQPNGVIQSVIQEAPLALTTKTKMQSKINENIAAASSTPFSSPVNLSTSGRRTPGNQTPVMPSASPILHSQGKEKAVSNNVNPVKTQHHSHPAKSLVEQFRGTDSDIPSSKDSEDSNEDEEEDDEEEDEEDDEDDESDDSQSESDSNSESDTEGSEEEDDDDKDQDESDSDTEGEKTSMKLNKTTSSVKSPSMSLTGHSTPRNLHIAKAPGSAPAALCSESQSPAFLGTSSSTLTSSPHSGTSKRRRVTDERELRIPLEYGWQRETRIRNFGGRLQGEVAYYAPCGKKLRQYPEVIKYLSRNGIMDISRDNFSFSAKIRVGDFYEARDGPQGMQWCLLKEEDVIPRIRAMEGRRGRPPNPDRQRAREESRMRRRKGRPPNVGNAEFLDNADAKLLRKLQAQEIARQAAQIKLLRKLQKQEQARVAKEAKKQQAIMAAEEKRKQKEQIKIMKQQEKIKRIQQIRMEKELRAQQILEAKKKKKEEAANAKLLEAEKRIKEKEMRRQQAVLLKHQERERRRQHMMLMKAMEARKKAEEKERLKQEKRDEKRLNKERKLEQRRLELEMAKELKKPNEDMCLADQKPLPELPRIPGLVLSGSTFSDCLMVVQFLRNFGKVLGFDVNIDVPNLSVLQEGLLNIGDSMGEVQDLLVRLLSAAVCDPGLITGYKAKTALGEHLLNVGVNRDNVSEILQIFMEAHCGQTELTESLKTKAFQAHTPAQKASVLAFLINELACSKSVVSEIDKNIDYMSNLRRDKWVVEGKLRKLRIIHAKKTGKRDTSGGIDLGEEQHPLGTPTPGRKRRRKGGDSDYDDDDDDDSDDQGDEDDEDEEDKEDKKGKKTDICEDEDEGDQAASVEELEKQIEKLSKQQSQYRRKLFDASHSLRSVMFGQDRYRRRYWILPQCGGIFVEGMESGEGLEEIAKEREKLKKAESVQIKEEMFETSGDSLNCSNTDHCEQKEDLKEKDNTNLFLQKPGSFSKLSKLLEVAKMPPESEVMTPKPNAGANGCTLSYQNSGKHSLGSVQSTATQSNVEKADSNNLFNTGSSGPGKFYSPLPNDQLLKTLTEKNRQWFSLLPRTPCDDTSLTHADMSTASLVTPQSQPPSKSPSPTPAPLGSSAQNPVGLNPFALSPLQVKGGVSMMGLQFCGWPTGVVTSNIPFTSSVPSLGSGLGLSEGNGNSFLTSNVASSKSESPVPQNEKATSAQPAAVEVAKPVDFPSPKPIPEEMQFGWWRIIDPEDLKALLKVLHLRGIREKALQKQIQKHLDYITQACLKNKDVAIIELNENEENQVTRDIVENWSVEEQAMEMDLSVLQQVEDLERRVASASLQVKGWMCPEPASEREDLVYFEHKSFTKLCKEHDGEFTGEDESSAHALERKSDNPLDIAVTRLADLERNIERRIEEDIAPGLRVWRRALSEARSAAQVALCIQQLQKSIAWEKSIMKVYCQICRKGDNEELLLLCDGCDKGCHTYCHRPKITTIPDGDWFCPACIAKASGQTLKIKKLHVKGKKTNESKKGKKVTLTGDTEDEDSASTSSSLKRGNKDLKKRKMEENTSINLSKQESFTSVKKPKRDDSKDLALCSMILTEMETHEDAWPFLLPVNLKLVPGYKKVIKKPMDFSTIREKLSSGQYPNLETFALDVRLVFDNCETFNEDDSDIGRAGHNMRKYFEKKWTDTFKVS
Outline: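 Compounds, titrated to a top concentration of 110 uM, were incubated 30 min at room temperature with preformed BAZ2B/acetyl-K14 H3 peptide complex (50 nM each). Proximity signal was measured by AlphaScreen after 20 min with beads.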
On the % scale 0 is the no-effect control and ±100 the full control effect; potency means the concentration at half of the fitted maximal effect; tags describe the fitted curve by direction and shape.

Question: How did the Potency turn out when `N#C/C(=C(\O)CCl)c1nnc2n1CCCCC2` was run?
Answer: active: 79.4 µM

Question: How did the Potency turn out when `C(=N\Nc1nc(Nc2ccccc2)nc(Nc2ccccc2)n1)/c1ccncc1` was run?
Answer: inactive

Question: For `CCN(CC)C(=O)CSc1nc2cc3c(cc2c(=O)n1Cc1ccc(OC)cc1)OCO3`, which Potency is on record?
Answer: active: 56.2 µM

Question: Which Potency does the source give for `O=S(=O)(c1ccc(-c2csc(=Nc3ccc(OC(F)(F)Cl)cc3)n2CCCO)cc1)N1CCCC1` here?
Answer: active: 89.1 µM

Question: `O=c1/c(=C\c2cccnc2)sc2nc3ccccc3n12` was tested. Which Potency did it give?
Answer: inactive

Question: How did the Potency turn out when `Cc1cc(C(=O)Nc2nc(-c3ccccn3)cs2)ccc1[N+](=O)[O-]` was run?
Answer: active: 28.2 µM

Question: Which Potency does the source give for `CCN(CCCNC(=O)CN(C)S(=O)(=O)c1cccc2nsnc12)c1ccccc1` here?
Answer: inconclusive: 50.1 µM [inhibitor, partial curve]

Question: For `C/C(=N\N1CCN(c2ccc(Cl)cc2)CC1)c1cccc([N+](=O)[O-])c1`, which Potency is on record?
Answer: inconclusive: 17.8 µM [inhibitor, full curve]

Question: With `Cc1onc(-c2c(F)cccc2Cl)c1C(=O)OCC(=O)NCc1ccco1` as the molecule, how does the Potency read?
Answer: inconclusive: 89.1 µM [inhibitor, single point]

Question: How did the Potency turn out when `COc1ccc(C(=O)Nc2ccc3oc(-c4ccc5ccccc5c4)nc3c2)cc1Br` was run?
Answer: inactive

Question: How did the Potency turn out when `Cc1occc1C(=O)N1CCN(c2ccc([N+](=O)[O-])cc2)CC1` was run?
Answer: inconclusive: 7.08 µM [inhibitor, partial curve, poor fit]

Question: `CC(=O)c1ccc(N=c2scc(C)n2C(C)C)cc1` was tested. Which Potency did it give?
Answer: inconclusive: 50.1 µM [inhibitor, partial curve]

Question: For `O=[N+]([O-])c1ccc(CN2CCN(c3ccc(F)cc3)CC2)o1`, which activity change, negative = inhibition is on record?
Answer: inconclusive: -112% [inhibitor]

Question: `COC(=O)c1ccc2c(c1)C(C)(C)C(/C=C/c1ccc(O)cc1)=[N+]2C` was tested. Which Potency did it give?
Answer: active: 28.2 µM

Question: How did the Potency turn out when `Cc1[nH]n(-c2ccc([N+](=O)[O-])cc2)c(=O)c1/C=N/N1CCOCC1` was run?
Answer: inconclusive: 89.1 µM [inhibitor, single point]

Question: With `COc1ccc(C(c2nnnn2C2CCCC2)N2CCC(C)CC2)cc1` (stereo not drawn) as the molecule, how does the Potency read?
Answer: inconclusive: 89.1 µM [inhibitor, single point]

Question: For `COc1ccc(NC(=O)/C(C#N)=C\c2cc(C)n(-c3ccc4c(c3)OCO4)c2C)cc1`, which Potency is on record?
Answer: inactive

Question: How did the Potency turn out when `NC(=O)CC(NC(=O)c1ccccc1)c1ccc(N2CCCCCC2)c([N+](=O)[O-])c1` (stereo not drawn) was run?
Answer: inconclusive: 50.1 µM [inhibitor, partial curve]

Question: For `O=C(Nc1cccc2ccccc12)/C(=C/c1ccc([N+](=O)[O-])cc1)NC(=O)c1ccccc1`, which Potency is on record?
Answer: inconclusive: 70.8 µM [inhibitor, single point]

Question: Which Potency does the source give for `O=S(=O)(Nc1ccc(N2CCOCC2)cc1)c1ccc2ccccc2c1` here?
Answer: inconclusive: 70.8 µM [inhibitor, single point]

Question: Which Potency does the source give for `CC(C)Oc1cccc(C2CC(=O)Nc3cc4c(cc32)OCO4)c1` (stereo not drawn) here?
Answer: inconclusive: 44.7 µM [inhibitor, partial curve]

Question: `COc1ccc(NC(C)(C)c2nnnn2-c2c(C)cccc2C)cc1` was tested. Which Potency did it give?
Answer: inconclusive: 79.4 µM [inhibitor, single point]

Question: How did the Potency turn out when `COc1cc(/C=C2\SC(=S)N(NC(=O)c3cccnc3)C2=O)ccc1O` was run?
Answer: active: 44.7 µM

Question: With `COc1ccccc1C1=NN(C(=S)Nc2ccccc2)C(c2ccco2)C1` (stereo not drawn) as the molecule, how does the Potency read?
Answer: inconclusive: 56.2 µM [inhibitor, single point]

Question: `CCc1ccccc1NC(=O)C1CCN(c2cnccn2)CC1` was tested. Which Potency did it give?
Answer: inactive

Question: Which Potency does the source give for `Cc1[nH]c2ccc3ncccc3c2c1C` here?
Answer: active: 50.1 µM

Question: With `Cc1cccc(C)c1NC(=O)C1C2C=CC(C2)C1C(=O)NCc1ccccn1` (stereo not drawn) as the molecule, how does the Potency read?
Answer: active: 79.4 µM

Question: For `COc1ccccc1N1C(=O)C=C(Sc2nc(C)cc(C)n2)C1=O`, which Potency is on record?
Answer: inconclusive: 50.1 µM [inhibitor, partial curve]

Question: `Nc1nc(-c2ccccn2)nc(N)c1Cc1c(F)cccc1Cl` was tested. Which Potency did it give?
Answer: active: 8.91 µM

Question: For `COc1ccc(C(=O)Nc2ccccc2C(=O)NC(Cc2ccc(O)cc2)C(=O)NNC(=O)c2ccccc2)cc1` (stereo not drawn), which Potency is on record?
Answer: inactive

Question: How did the Potency turn out when `CN1CCN(C=NC2=NN(c3cccc(C(F)(F)F)c3)CC2)CC1` was run?
Answer: inconclusive: 89.1 µM [inhibitor, single point]

Question: How did the Potency turn out when `Cc1cc(C)n(CC(O)Cn2c(C)c(C)c3ccccc32)n1` (stereo not drawn) was run?
Answer: active: 35.5 µM

Question: With `CN(C)c1ccc(CNC(=O)c2ccc(NC(=O)N3CCCCc4ccccc43)cc2)cc1` as the molecule, how does the Potency read?
Answer: active: 28.2 µM

Question: For `O=C(CCN1C(=O)/C(=C/c2ccccc2Cl)SC1=S)Nc1cccnc1`, which Potency is on record?
Answer: inconclusive: 12.6 µM [inhibitor, partial curve]

Question: How did the Potency turn out when `Clc1nc(CN2CCCCC2)nc2sc3c(c12)CCCC3` was run?
Answer: inactive

Question: `COc1ccc(NC(=O)CSc2nnc(NC(=O)c3ccccc3C(=O)O)s2)cc1` was tested. Which Potency did it give?
Answer: inactive

Question: `N#CC1(c2ccccc2)CCC(NCCc2ccccc2)CC1` (stereo not drawn) was tested. Which Potency did it give?
Answer: active: 56.2 µM

Question: With `CC1=NN(c2ccccc2)C(=O)C1(C)C` as the molecule, how does the Potency read?
Answer: inactive

Question: Which Potency does the source give for `Cc1ccc(N2C(=O)c3cccc4c(Oc5ccccc5[N+](=O)[O-])ccc(c34)C2=O)c(C)c1` here?
Answer: inconclusive: 28.2 µM [inhibitor, full curve, poor fit]

Question: For `Cc1ccc(C)c(NC(=O)C2C3C=CC(O3)C2C(=O)O)c1` (stereo not drawn), which Potency is on record?
Answer: inactive

Question: How did the Potency turn out when `Cc1ccc(CNC(=O)CN(C(=O)N2CCN(C)CC2)S(=O)(=O)c2ccc(C)cc2)cc1` was run?
Answer: inactive

Question: For `Cc1ccc([N+](=O)[O-])cc1NC(=O)CSc1nncc2ccccc12`, which Potency is on record?
Answer: inconclusive: 100 µM [inhibitor, partial curve]

Question: How did the Potency turn out when `O=C(NCC1CCCO1)c1sc(=S)n2c1[nH]c(=O)c1ccc(C(=O)N3CCCCC3)cc12` (stereo not drawn) was run?
Answer: inconclusive: 50.1 µM [inhibitor, partial curve]

Question: How did the Potency turn out when `O=C(O)CSC(C(=O)Nc1ccc(Br)cc1)c1ccccc1` (stereo not drawn) was run?
Answer: inconclusive: 89.1 µM [inhibitor, single point]

Question: Which Potency does the source give for `Cc1cc(C)n2nc(/C(C#N)=C/c3ccccn3)c(C#N)c2n1` here?
Answer: inactive

Question: With `COC(=O)c1ccc(COc2ccccc2/C=C(\C#N)C(=O)NC(C)C)cc1` as the molecule, how does the Potency read?
Answer: inactive

Question: How did the Potency turn out when `O=C(O)c1ccc(-c2ccc(-c3ccccc3)cc2)s1` was run?
Answer: active: 50.1 µM

Question: How did the Potency turn out when `O=C(CN1C(=O)CCC1=O)NNc1ccc2ccccc2c1` was run?
Answer: inactive

Question: Which Potency does the source give for `O=C(C[n+]1ccc(C(=O)N/N=C/c2ccc(O)cc2)cc1)c1ccccc1` here?
Answer: inconclusive: 56.2 µM [inhibitor, partial curve]

Question: For `CSCCC1NC2(C(=O)Nc3c(C)cc(Cl)cc32)[C@@H]2C(=O)N(C3CCCC3)C(=O)[C@H]12` (stereo partly drawn), which Potency is on record?
Answer: inconclusive: 50.1 µM [inhibitor, partial curve]

Question: `COc1ccc(N2CCN(S(=O)(=O)c3ccc(OC)cc3)CC2)cc1` was tested. Which Potency did it give?
Answer: inconclusive: 79.4 µM [inhibitor, single point]

Question: With `O=C(COC(=O)C1CCC1)Nc1ccc(OC(F)F)cc1` as the molecule, how does the Potency read?
Answer: inactive

Question: `CC(C)(C)NC(=O)C(=O)NNC(=O)c1cccc([N+](=O)[O-])c1` was tested. Which Potency did it give?
Answer: inconclusive: 28.2 µM [inhibitor, full curve]

Question: For `Cc1cc(C)c(S(=O)(=O)Nc2ccc(N3CCOCC3)cc2)c(C)c1`, which Potency is on record?
Answer: inconclusive: 79.4 µM [inhibitor, single point]

Question: `COc1cc(CCNC(=O)c2ccc3c(c2)c(C)c(C)n3Cc2cccc(C)c2)cc(OC)c1OC` was tested. Which Potency did it give?
Answer: inconclusive: 28.2 µM [inhibitor, full curve]

Question: `C/C(=N\NC(=O)c1nnn(-c2nonc2N)c1-c1ccccc1)c1ccccc1O` was tested. Which Potency did it give?
Answer: inconclusive: 89.1 µM [inhibitor, single point]

Question: How did the Potency turn out when `O=C(Nc1ccc(Nc2ccccc2)cc1)c1ccc(Cl)c([N+](=O)[O-])c1` was run?
Answer: active: 39.8 µM

Question: How did the Potency turn out when `CCOc1cc(N2CCOCC2)c(OCC)cc1NC(=O)Cc1cccc2ccccc12` was run?
Answer: active: 22.4 µM

Question: `CCOc1ccc(Nc2cc(C)c3ccccc3n2)cc1` was tested. Which Potency did it give?
Answer: inactive

Question: How did the Potency turn out when `COc1ccc(CCNC(=O)CC2Nc3ccccc3NC2=O)cc1` (stereo not drawn) was run?
Answer: inconclusive: 79.4 µM [inhibitor, single point]

Question: Which Potency does the source give for `O=C1C2Sc3[nH]c(=O)sc3C(c3ccccc3)C2C(=O)N1c1ccccc1` (stereo not drawn) here?
Answer: inconclusive: 89.1 µM [inhibitor, single point]

Question: How did the Potency turn out when `Cc1ccc(NC(=O)c2ccc(CNS(=O)(=O)c3ccc4c(c3)C(C)(C)C(=O)N4C)cc2)cc1C` was run?
Answer: inactive

Question: With `COc1ccc(CNCC(O)COc2ccc(C(C)(C)c3ccccc3)cc2)cc1` (stereo not drawn) as the molecule, how does the Potency read?
Answer: active: 39.8 µM

Question: `COc1ccc(/C(O)=C2/C(=O)C(=O)N(CCCC(=O)O)C2c2ccc(OC)cc2)cc1` (stereo not drawn) was tested. Which Potency did it give?
Answer: inconclusive: 89.1 µM [inhibitor, single point]

Question: Which Potency does the source give for `Cc1cc(NC(=O)Cc2cn3ccsc3n2)n(-c2ccccc2)n1` here?
Answer: inactive

Question: `CCOc1ccc(C2c3c(oc4ccc(C)cc4c3=O)C(=O)N2CCCN(C)C)cc1` (stereo not drawn) was tested. Which Potency did it give?
Answer: inactive

Question: `CSc1ccc(CCNC(=O)C(C)n2nc(C)c3sc4ccccc4c3c2=O)cc1` (stereo not drawn) was tested. Which Potency did it give?
Answer: inconclusive: 70.8 µM [inhibitor, partial curve]

Question: With `Cc1cccc(OCC(=O)N/N=C/C=C/c2ccco2)c1` as the molecule, how does the Potency read?
Answer: inconclusive: 44.7 µM [inhibitor, partial curve]

Question: For `CCOC(=O)/C(=N/Nc1ccc(Cl)cc1)Sc1nnnn1-c1ccc(C)cc1`, which Potency is on record?
Answer: inconclusive: 89.1 µM [inhibitor, single point]

Question: `CCC1CCCCN1c1nc(-c2cccc(OC)c2O)nc2ccccc12` (stereo not drawn) was tested. Which Potency did it give?
Answer: inconclusive: 35.5 µM [inhibitor, partial curve]

Question: Which Potency does the source give for `COCCCNCCCCOc1cccc(Br)c1` here?
Answer: inconclusive: 89.1 µM [inhibitor, single point]

Question: Which Potency does the source give for `Cc1ccccc1-n1c(=O)cc(N2CCCCCC2)[nH]c1=O` here?
Answer: inactive

Question: For `O=C1C2=C(C(=O)c3ccccc31)C1O[C@](CCCCN3C(=O)c4ccccc4C3=O)(Cc3c1ccc1ccccc31)O2`, which Potency is on record?
Answer: inconclusive: 14.1 µM [inhibitor, single point]
